Reference: the supplement of paper PMC8007513
Structures can show the parent of a compound that is named as a salt. ± gives the standard error. The whole screen tested about 1,300 compounds, of which about 75 (6%) showed an effect of 50% or more. The list shows a part of the results.

System: Trichoderma virens ATCC 9645
Experiment: growth yield (OD600) relative to untreated control; higher = less growth inhibition
Settings: compound concentration: 100 uM
How it was run: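 For each 96-well plate, 100 μl aliquots were prepared with Trichoderma virens ATCC 9645 spores suspended at 15,000 spores ml^−1 in potato dextrose broth. The spores had been harvested from potato dextrose agar plates after 7 days. Library compounds were present at 100 μM final, some wells also receiving a biocide at 200 ng ml^−1, and plates were grown at 30 °C with OD600 read on a BioTek EL800 at 40 h and 72 h. Reported growth, relative to the control lacking both agents, is the mean of duplicate screens.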

## N=C(N)NC(=O)c1nc(Cl)c(N)nc1N [Amiloride hydrochloride dihydrate]
40 h
  growth yield: 98.6 ± 5.2%
72 h
  growth yield: 94.6 ± 2.3%

## CCCCOC(=O)c1ccc(N)cc1 [Butamben]
40 h
  growth yield: 66.9 ± 1.8%
72 h
  growth yield: 73 ± 2.5%

## N[C@@H]1CCCCN(c2c(F)cc3c(=O)c(C(=O)O)cn(C4CC4)c3c2Cl)C1 [Besifloxacin hydrochloride]
40 h
  growth yield: 93.4 ± 6.3%
72 h
  growth yield: 91.6 ± 8.3%

## CC[C@H]1OC(=O)[C@H](C)[C@@H](O[C@H]2C[C@@](C)(OC)[C@@H](O)[C@H](C)O2)[C@H](C)[C@@H](O[C@@H]2O[C@H](C)C[C@H](N(C)C)[C@H]2O)[C@](C)(OC)C[C@@H](C)C(=O)[C@H](C)[C@@H](O)[C@]1(C)O [Clarithromycin]
40 h
  growth yield: 107 ± 3%
72 h
  growth yield: 103 ± 1.3%

## CCOc1ccccc1OCC1CNCCO1 (centres undefined) [Viloxazine hydrochloride]
40 h
  growth yield: 99.6 ± 1.8%
72 h
  growth yield: 96.4 ± 1.4%

## CCCCC1=NC2(CCCC2)C(=O)N1Cc1ccc(-c2ccccc2-c2nnn[nH]2)cc1 [Irbesartan]
40 h
  growth yield: 96.1 ± 2.1%
72 h
  growth yield: 98.06 ± 0.32%

## Nc1nc(=O)c2c([nH]1)NC[C@@H](CNc1ccc(C(=O)N[C@@H](CCC(=O)O)C(=O)O)cc1)N2C=O [Folinic acid calcium salt]
40 h
  growth yield: 99.8 ± 2.5%
72 h
  growth yield: 92 ± 4.1%

## COc1ccc2cc([C@@H](C)C(=O)O)ccc2c1 [(R) -Naproxen sodium salt]
40 h
  growth yield: 84.5 ± 7%
72 h
  growth yield: 87.2 ± 6.4%

## CC1(C)NC(=O)N(c2ccc([N+](=O)[O-])c(C(F)(F)F)c2)C1=O [Nilutamide]
40 h
  growth yield: 96.73 ± 0.79%
72 h
  growth yield: 95.8 ± 1.1%

## CCCCC(CC)CNC(=N)NC(=N)NCCCCCCNC(=N)NC(=N)NCC(CC)CCCC (centres undefined) [Alexidine dihydrochloride]
40 h
  growth yield: 1.91 ± 0.32%
72 h
  growth yield: 1.89 ± 0.63%

## COC(=O)[C@@H]1[C@H]2C[C@H]3c4[nH]c5ccccc5c4CCN3C[C@@H]2CC[C@@H]1O [Yohimbine hydrochloride]
40 h
  growth yield: 102 ± 2.5%
72 h
  growth yield: 104 ± 4.7%

## O=C1CCc2cc(OCCCCc3nnnn3C3CCCCC3)ccc2N1 [Cilostazol]
40 h
  growth yield: 101 ± 5.4%
72 h
  growth yield: 101 ± 5.7%

## CCS(=O)(=O)CCn1c([N+](=O)[O-])cnc1C [Tinidazole]
40 h
  growth yield: 99.1 ± 2.9%
72 h
  growth yield: 96.6 ± 2%

## CCCCOc1cc(C(=O)NCCN(CC)CC)c2ccccc2n1 [Dibucaine]
40 h
  growth yield: 101.02 ± 1e-14%
72 h
  growth yield: 98.37 ± 0.21%

## CCC1=C(C)CN(C(=O)NCCc2ccc(S(=O)(=O)NC(=O)N[C@H]3CC[C@H](C)CC3)cc2)C1=O [Glimepiride]
40 h
  growth yield: 108 ± 9.1%
72 h
  growth yield: 103 ± 6.7%

## O=C(O)Cc1sc(-c2ccccc2)nc1-c1ccc(Cl)cc1 [Fentiazac]
40 h
  growth yield: 63.1 ± 4.3%
72 h
  growth yield: 88.8 ± 4.9%

## CC(=O)OCC(=O)[C@@]12N=C(C)O[C@@H]1C[C@H]1[C@@H]3CCC4=CC(=O)C=C[C@]4(C)[C@H]3[C@@H](O)C[C@@]12C [Deflazacort]
40 h
  growth yield: 100.07 ± 1.4e-14%
72 h
  growth yield: 97.7 ± 1.3%
